{"source": "PubChem BioAssay AID1487", "about": "(National Center for Advancing Translational Sciences (NCATS), 2009)", "note": "About 25 (0.01%) of roughly 200,000 compounds were called active. Inconclusive results (about 23%) are left out. The call rests on the fitted dose curve; in most records, active means well fitted inhibition curve with a large enough effect in the signal ratio, with a control signal flat (not every such curve was filed as active); inconclusive means small, poorly fitted or top-dose-only effect, or effect the other way, or a change in a side signal; inactive means flat fitted curve, though single readings scatter; the % refers to the signal ratio. This is a selection; strong and weak results do not stand in their true shares. On the % scale 0 is the no-effect control and ±100 the full control effect; potency means the concentration at half of the fitted maximal effect.", "data": [{"test": "qHTS Assay for Modulators of Lamin A Splicing", "conditions": "HeLa LMNA splicing GFP/RFP minigene ratio, 48 h; series mostly up to 46.1 µM; ratio change, negative = inhibition: at the top concentration", "summary_of_the_method": "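S3 HeLa stable clones carrying a lamin A-EGFP splicing minigene plus DsRed2 were seeded at 600 cells/well in Opti-MEM with 2% FBS, pin-dosed and incubated 48 h at 37°C. Acumen cytometry (488 nm) gave the GFP/RFP total-intensity ratio.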", "values": [{"smiles": "CC(N)(Cc1ccc(O)c(O)c1)C(=O)O", "note": "(stereo not given)", "ratio change, negative = inhibition": "inactive: -17.8%"}, {"smiles": "COc1cc(/C=C2\\SC(=S)N(CC(=O)NC(C)(C)C)C2=O)cc(OC)c1OC", "ratio change, negative = inhibition": "inactive: 4.31% [at 9.22 µM]"}, {"smiles": "CCC(=O)O[C@@]1(C(=O)CCl)C(C)CC2C3CCC4=CC(=O)C=C[C@@]4(C)[C@]3(F)C(O)C[C@]21C", "note": "(stereo not given in full)", "ratio change, negative = inhibition": "inactive: -16.3%"}, {"smiles": "COc1cc(NS(=O)(=O)c2ccc(N)cc2)nc(OC)n1", "ratio change, negative = inhibition": "inactive: 4.32%"}, {"smiles": "CN(C)CCOC(=O)C1(c2ccccc2)CCOCC1", "ratio change, negative = inhibition": "inactive: -6.66%"}, {"smiles": "Cn1sc(=O)c2cc(S(=O)(=O)NC3CC3)ccc21", "Potency": "active: 11.2 µM"}, {"smiles": "O=C1S/C(=C/c2ccc(N3CCOCC3)o2)C(=O)N1Cc1c(F)cccc1Cl", "ratio change, negative = inhibition": "inactive: 6.27%"}, {"smiles": "CCCC(=O)O[C@]1(C(=O)CO)CC[C@H]2[C@@H]3CCC4=CC(=O)CC[C@]4(C)[C@H]3[C@@H](O)C[C@@]21C", "ratio change, negative = inhibition": "inactive: -5.54%"}, {"smiles": "COC(=O)/C(=C\\c1ccc2c(c1)c1ccccc1n2C)NC(=O)c1ccccc1", "ratio change, negative = inhibition": "inactive: -21.5%"}, {"smiles": "CCC(Oc1ccccc1)C(=O)NC1C(=O)N2C1SC(C)(C)C2C(=O)O", "note": "(stereo not given)", "ratio change, negative = inhibition": "inactive: -14.2% [at 46 µM]"}, {"smiles": "CC1(C)[C@@H](O)CC[C@]2(C)[C@H]3C(=O)C=C4[C@@H]5C[C@@](C)(C(=O)O)CC[C@]5(C)CC[C@@]4(C)[C@]3(C)CC[C@@H]12", "ratio change, negative = inhibition": "inactive: -5.48%"}, {"smiles": "O=C(N[C@@H](CO)[C@@H](O)c1ccc([N+](=O)[O-])cc1)C(Cl)Cl", "ratio change, negative = inhibition": "inactive: -18.7%"}, {"smiles": "CCOC(=O)c1cnc2c(C)cccc2c1NCCc1ccc(OC)c(OC)c1", "ratio change, negative = inhibition": "inactive: -18.9% [at 46 µM]"}, {"smiles": "CN1C(=O)/C(=C/c2cc(N=Nc3ccccc3)ccc2O)SC1=S", "ratio change, negative = inhibition": "inactive: 1.77%"}, {"smiles": "CC(C[N+](C)(C)C)OC(N)=O", "note": "(stereo not given)", "ratio change, negative = inhibition": "inactive"}, {"smiles": "Cc1onc(-c2c(Cl)cccc2Cl)c1C(=O)NC1C(=O)N2C1SC(C)(C)C2C(=O)O", "note": "(stereo not given)", "ratio change, negative = inhibition": "inactive: 6.99% [at 46 µM]"}, {"smiles": "Cc1cn([C@H]2C[C@H](N=[N+]=[N-])[C@@H](CO)O2)c(=O)[nH]c1=O", "ratio change, negative = inhibition": "inactive: -3.71%"}, {"smiles": "COC(=O)[C@@H](N)CS", "ratio change, negative = inhibition": "inactive: -1.75%"}, {"smiles": "CCCCC1C(=O)N(c2ccccc2)N(c2ccccc2)C1=O", "ratio change, negative = inhibition": "inactive: -5.59%"}, {"smiles": "CCCc1nc2c(C)cc(-c3nc4ccccc4n3C)cc2n1Cc1ccc(-c2ccccc2C(=O)O)cc1", "ratio change, negative = inhibition": "inactive: 18.5% [at 46 µM]"}, {"smiles": "N=C(N)N1CCc2ccccc2C1", "ratio change, negative = inhibition": "inactive"}, {"smiles": "O=C(O)Cc1cc(I)c(Oc2ccc(O)c(I)c2)c(I)c1", "ratio change, negative = inhibition": "inactive: -24%"}, {"smiles": "O=C(Nc1ccc(Cl)cc1)N1CCC(c2ccccc2)C1", "note": "(stereo not given)", "ratio change, negative = inhibition": "inactive: -2.27% [at 46 µM]"}, {"smiles": "CC[C@@H]1OC(=O)[C@H](C)[C@H](O[C@@H]2C[C@](C)(OC)[C@H](O)[C@H](C)O2)[C@H](C)[C@H](O[C@@H]2O[C@@H](C)C[C@@H](N(C)C)[C@@H]2O)[C@](C)(O)C[C@H](C)C(=O)[C@H](C)[C@H](O)[C@]1(C)O", "ratio change, negative = inhibition": "inactive: -12%"}, {"smiles": "CC(/C=N/NC(=O)c1ccncc1)=C\\c1ccc(C(C)C)cc1", "ratio change, negative = inhibition": "inactive: -5.9%"}]}]}
